These results are taken from PMC9911399, “Two distinct binding modes provide the RNA-binding protein RbFox with extraordinary sequence specificity”.

Numbering of substitutions follows the chain as printed; changes in the protein carry UniProt numbers. Some of the results follow.

To fix the notation:
B1: UGUUGUA (DNA:RNA)
RNA: GGGAGACCGGAAUUCAGAUUGUCCUGUUGUAUUAAAUCCCGUCGUAGCCACCA
DNA 1: CAATCTGAATTCCGGTCTCCC
DNA 2: TGGTGGCTACGACGGGATT
B2: AAGCUAA (DNA:RNA)
RNA: B1 RNA with U25A, G26A, U27G, U28C, G29U, U30A
DNA 1: CAATCTGAATTCCGGTCTCCC
DNA 2: TGGTGGCTACGACGGGATT
B3: AUGAUCU (DNA:RNA)
RNA: GGGAGACCGGAAUUCAGAUUGUCCAUGAUCUUUAAAUCCCGUCGUAGCCACCA
DNA 1: CAATCTGAATTCCGGTCTCCC
DNA 2: TGGTGGCTACGACGGGATT
B4: GGCGCGC (DNA:RNA)
RNA: B1 RNA with U25G, U27C, U28G, G29C, U30G, A31C
DNA 1: CAATCTGAATTCCGGTCTCCC
DNA 2: TGGTGGCTACGACGGGATT
B5: GGAGCUC (DNA:RNA)
RNA: B1 RNA with U25G, U27A, U28G, G29C, A31C
DNA 1: CAATCTGAATTCCGGTCTCCC
DNA 2: TGGTGGCTACGACGGGATT
B6: UAUCCUG (DNA:RNA)
RNA: B1 RNA with G26A, U28C, G29C, A31G
DNA 1: CAATCTGAATTCCGGTCTCCC
DNA 2: TGGTGGCTACGACGGGATT
B7: GGUCCGA (DNA:RNA)
RNA: B1 RNA with U25G, U28C, G29C, U30G
DNA 1: CAATCTGAATTCCGGTCTCCC
DNA 2: TGGTGGCTACGACGGGATT
B8: ACGUCGG (DNA:RNA)
RNA: B3 RNA with U26C, A28U, U29C, C30G, U31G
DNA 1: CAATCTGAATTCCGGTCTCCC
DNA 2: TGGTGGCTACGACGGGATT
B9: UGUUACC (DNA:RNA)
RNA: B1 RNA with G29A, U30C, A31C
DNA 1: CAATCTGAATTCCGGTCTCCC
DNA 2: TGGTGGCTACGACGGGATT
B10: GCCACUU (DNA:RNA)
RNA: B3 RNA with A25G, U26C, G27C, U29C, C30U
DNA 1: CAATCTGAATTCCGGTCTCCC
DNA 2: TGGTGGCTACGACGGGATT
B11: GUUUGUU (DNA:RNA)
RNA: B1 RNA with U25G, G26U, A31U
DNA 1: CAATCTGAATTCCGGTCTCCC
DNA 2: TGGTGGCTACGACGGGATT
B12: GCCCGGU (DNA:RNA)
RNA: B3 RNA with A25G, U26C, G27C, A28C, U29G, C30G
DNA 1: CAATCTGAATTCCGGTCTCCC
DNA 2: TGGTGGCTACGACGGGATT
B13: CGGCCCC (DNA:RNA)
RNA: B3 RNA with A25C, U26G, A28C, U29C, U31C
DNA 1: CAATCTGAATTCCGGTCTCCC
DNA 2: TGGTGGCTACGACGGGATT
B14: UUGGCAG (DNA:RNA)
RNA: B3 RNA with A25U, A28G, U29C, C30A, U31G
DNA 1: CAATCTGAATTCCGGTCTCCC
DNA 2: TGGTGGCTACGACGGGATT
B15: AGUCAGA (DNA:RNA)
RNA: B1 RNA with U25A, U28C, G29A, U30G
DNA 1: CAATCTGAATTCCGGTCTCCC
DNA 2: TGGTGGCTACGACGGGATT
B16: CGGGAUC (DNA:RNA)
RNA: B1 RNA with U25C, U27G, U28G, G29A, A31C
DNA 1: CAATCTGAATTCCGGTCTCCC
DNA 2: TGGTGGCTACGACGGGATT
B17: AAACAUA (DNA:RNA)
RNA: B1 RNA with U25A, G26A, U27A, U28C, G29A
DNA 1: CAATCTGAATTCCGGTCTCCC
DNA 2: TGGTGGCTACGACGGGATT
B18: ACGGUUG (DNA:RNA)
RNA: B3 RNA with U26C, A28G, C30U, U31G
DNA 1: CAATCTGAATTCCGGTCTCCC
DNA 2: TGGTGGCTACGACGGGATT
B19: GUAGCAU (DNA:RNA)
RNA: B3 RNA with A25G, G27A, A28G, U29C, C30A
DNA 1: CAATCTGAATTCCGGTCTCCC
DNA 2: TGGTGGCTACGACGGGATT
B20: GCUGCAA (DNA:RNA)
RNA: B1 RNA with U25G, G26C, U28G, G29C, U30A
DNA 1: CAATCTGAATTCCGGTCTCCC
DNA 2: TGGTGGCTACGACGGGATT

The target of the experiment is T1, RBFOX1 RRM RbFoxmut (Fox-RRM*) (Homo sapiens, UniProt Q9NWB1 109-208, R118D;E147R;N151S;E152T).
T1 sequence: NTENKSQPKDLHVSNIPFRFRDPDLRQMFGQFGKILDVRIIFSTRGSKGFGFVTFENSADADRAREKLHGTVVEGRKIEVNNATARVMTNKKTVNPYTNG
As to the kind of experiment: EMSA; HiTS-Eq, 1 nM pool, 10 min; buffer printed only for the single-RNA assays: 10 mM Tris pH 7.5, 150 mM NaCl, 3.4 mM EDTA, 0.001% NP-40, 30 C. As to conditions: tags: His6 N-terminal (pET28a); label: 5' 32P. The method in brief: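 Purified RbFox RRM, wild type or mutant, was incubated for 10 min in 50 µL with 1 nM of a 5′-radiolabelled RNA pool carrying 7 randomized nucleotides, whose flanks were annealed to DNA oligonucleotides, over a series of increasing protein concentrations. Unbound RNA was resolved on 8% native PAGE, cut out, reverse-transcribed, barcoded by PCR and sequenced on an Illumina HiSeq 2500. Relative association constants were derived from changes in read counts for each RNA species versus the control reaction and normalised to the cognate motif.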
Take B1: the binding signal is 0.307 KA relative to UGCAUGU.

Regarding B2, the binding signal was 0.124 KA relative to UGCAUGU.

Take B3: the binding signal was 0.0715 KA relative to UGCAUGU.

For the molecule B4, the binding signal is 0.0946 KA relative to UGCAUGU.

As for B5, the binding signal was 0.0628 KA relative to UGCAUGU.

Take B6: the binding signal is 0.101 KA relative to UGCAUGU.

Take B7: the binding signal was 0.145 KA relative to UGCAUGU.

Take B8: the binding signal was 0.117 KA relative to UGCAUGU.

Take B9: the binding signal was 0.145 KA relative to UGCAUGU.

Regarding B10, the binding signal is 0.0643 KA relative to UGCAUGU.

Take B11: the binding signal is 0.259 KA relative to UGCAUGU.

B12: the binding signal is 0.104 KA relative to UGCAUGU.

For the molecule B13, the binding signal is 0.0599 KA relative to UGCAUGU.

As to B14, the binding signal was 0.106 KA relative to UGCAUGU.

Take B15: the binding signal is 0.0906 KA relative to UGCAUGU.

For B16, the binding signal is 0.141 KA relative to UGCAUGU.

Regarding B17, the binding signal is 0.0793 KA relative to UGCAUGU.

With B18, the binding signal was 0.208 KA relative to UGCAUGU.

For the molecule B19, the binding signal was 0.127 KA relative to UGCAUGU.

With B20, the binding signal is 0.0831 KA relative to UGCAUGU.
